{"source": "the supplement of paper PMC12632987", "binders": {"B1": {"name": "GBRAP_160_4227 (protein)", "chain": "DEVVERLVEIFRETFLEALELIEGETPEERQVILDVAVGEVILEVEEEEGATDEMVEVVDEKAEELAKELLAARDATPEEKRKLIEEKAEELRKELEKIK"}, "B2": {"name": "GBRAP_80_6849 (protein)", "chain": "AEEKLEKAKAELIELLPEAKETIEELVKLALELGVSLEDITELLEALAELAKKDKELAKELLEELLEEMKELKEEGDKEGARAVVRGYAGEALLLAEELE"}, "B3": {"name": "GBRAP_14_3855 (protein)", "chain": "KEALIKAVDETAADAKEFAAEVAPEHAAEIGALIDELAAKIKEKIKKENLNKDEVAELVDKAADELGAFMAEKGYMSADEIAAFKAHVINTALLALEEVE"}, "B4": {"name": "GBRAP_184_5109 (protein)", "chain": "KVLEREIEVKNEEELKEKLEEVIEEAKKEKATVIVIVNVENLTPEMAKTIMEAAKKIKDAGAPEVLVEIVSPNLTDEVIDTIVNTAKELGIDNVVLAREE"}, "B5": {"name": "GBRAP_78_6628 (protein)", "chain": "EVEELVDKARELVSEAATLATKQEGEEYIDILGELIDALSDLEEAEEEGFDLELLEEAREHLERAKELLKELNDEELEPILKKVEEALELLKEAIELLKK"}, "B6": {"name": "GBRAP_52_5956 (protein)", "chain": "MEEEMRALAERLVALVEAGDLEGARALFREFVAAHDEATLERFAEVWAEVARAAPPERHDAVWAAAELAAEVLEEEGRDERLAGLLLARVAAALYEKELA"}, "B7": {"name": "GBRAP_11_2615 (protein)", "chain": "KKEALEKAAKLAKKLAEVVEKLIEEGVDNEELRKEAEKLLKELTKLVKEELDEADQTDVEVMEELWKKAKEDPENAEEYAKQLLAAARVLEGNYLLDIEE"}, "B8": {"name": "GBRAP_11_2783 (protein)", "chain": "KKEKLKEIAELAEKLAEVIEKLLKEGVDNEELIKEAEELLEELKKLVEEHEDKSLQKLAEIAEELWKEFLEDKENAEKYAQELLAAVRVLLGEVLLLLEE"}, "B9": {"name": "GBRAP_35_5581 (protein)", "chain": "DDVEIILETLRDYADAAIEALEGEDLEEAIRMTRAFVRAAERAIEDLKDNKEALEEIERLLERVLKAAKKYRADNPEMQELIKRIEELAERAKKLAKEIE"}, "B10": {"name": "GBRAP_186_5393 (protein)", "chain": "EENEEEEDEILEELEERHDIVIVVYLDPEKSLEEKKAIMERDTEAAAALARETGKRVALVFRVVANEEELEELKKHVEELNERALAETGVEVRLIGFVKE"}, "B11": {"name": "GBRAP_35_5574 (protein)", "chain": "DFDEEVTEMLLATIDDLTLAVPDVDVETAVAMANSIVKAARALGEELKDKPELLERIADALGRLRDAVEANYADDPEAQATAAAIDAAIAELRARAAAAK"}, "B12": {"name": "GBRAP_137_3658 (protein)", "chain": "KKIKVEVKLEGNFAEVTIKAEDEETALEAADIAIEVARETGVAAAISVDLEEKEVYVDLIGEPEQLRAFVERLVERLSKKYDVDLTIEEDGKVTKERRKK"}, "B13": {"name": "GBRAP_52_6223 (protein)", "chain": "AAARAEALARRVLETVKTEGVEAAVALLEELARTESPELVAAVLEALVALLKSESYETAEAVLDALLAAEDALEAAGVPALTVEDAIAAAAAVAVELKKK"}, "B14": {"name": "GBRAP_35_5590 (protein)", "chain": "EIEQIILDTLEDYAEATIYAIKEESLETAIKMLEAFIRTARLAIKDLKDNLEALKKIEELIEKVIEEVKKYRSDDPKVQELLKELEELAKEAKEQAKKVE"}, "B15": {"name": "GBRAP_128_3510 (protein)", "chain": "SMEEAVAKAKELMEAIAKADEEEARKLTEELVALIDSVDDETAEAIADVVEEQLPKLSKEKLEVVADTLLELRPTVDPYKANLLAGIAVEALNKAEELEE"}, "B16": {"name": "GBRAP_35_5538 (protein)", "chain": "DSDTEEVEMIVNTMKDLVDALPDVSPEDQAKLAEHLIRLAKDLVKDKPKNLKLIKEAIENLERAIKIIEESDLPEETKEKLIKELEEVKKELEKILKENK"}, "B17": {"name": "GBRAP_39_5655 (protein)", "chain": "EEEEENELRFEYLVALAEKERVEKNISDEELIERGKKILKEMAKEHPEIKELVEKALELMEKGDEETKLAIVGIALRYERGEPIEEIKEDLESFLKYLES"}, "B18": {"name": "GBRAP_78_6738 (protein)", "chain": "EIEEEIDEALEHLDRASKLAKKLDPETSNELLDLLVDAMSYLLLSEENGPNLEELKEALKHAEKALELAKKIDTEEAKELAEELEKAIEHLKKAIELLEK"}, "B19": {"name": "GBRAP_160_4115 (protein)", "chain": "MEEKVKTAEDSAKDLEETIKIIEDLSPEEAGILAKVTLGQVLLDASELDEEFEEIEELADAAIEEIEKTAKEDPEKLKEVSLKQLKKLLEALKKKAKELK"}, "B20": {"name": "GBRAP_14_3817 (protein)", "chain": "MEELKKKIKEILDDLYEELVEDIGLDEEKVKKLIDKALEEIFKALDDPEGSEEKIKEIMEKLKKEIEKLAAELGADEAAAARALVTDAEYEIDEAIEEAK"}, "B21": {"name": "GBRAP_128_3248 (protein)", "chain": "PNPEVVAYAEKTVEELEKADKETARKIAKDFAEYLKTITDEEAETAIDVVEKNLSKLTVEHLEILADVLREEMPKYTPEKANLVAGLEVEALNEAEEKEE"}, "B22": {"name": "GBRAP_160_4768 (protein)", "chain": "KEELEKLKKEVEEEFDEAEEMLKESPASEAPTIIRGTMGDVIMLVESSEAVSEELEEKIAEIMDAAEAEAAALADAPVEEHLALLREARDKVLELIEEEI"}, "B23": {"name": "GBRAP_137_3677 (protein)", "chain": "SKVEITVKEVDGLVEITVLVHDPEKAEEDEEKLLDIAHEVGALAVAIKRNEDGSLEVTIVVPEEKGEEALEKVLELAKEYDEVVIRREKDGEVTEEVLRK"}, "B24": {"name": "GBRAP_43_5787 (protein)", "chain": "MEELVEGTLDFAFTALETPEITDETKGRIVEDAVEFALDEGLLTEETLTELLEALRESVSPEVFAETLERILERAKELGAPQSLIDIIEEALEEAREEIE"}, "B25": {"name": "GBRAP_35_5523 (protein)", "chain": "SSDETETEMLVSTIEDLVKAIPDLPVETAAEIATKLVELAERLAEDVKDNLESLKKIKEAIEKLIEALKKHHGDSPLAQEVIKKAEEVKEKIEKLIKEIE"}, "B26": {"name": "GBRAP_184_5062 (protein)", "chain": "KTLEEEIEVENLEEAREKLAELAEKVKDFKGDLVVLLKLPRPDREIIRAALRGLAAIKEAGYVTRVTLGIDVELSEEEVDFALAEADEAGVRVVVALSEE"}, "B27": {"name": "GBRAP_160_4101 (protein)", "chain": "SEKVEEVIKEIDEIEEETLEMIEGETIEQRATIVRGAGGEVIMLLEESGIVSDEVIDFADEEFDKLVETILANPELTEEEIKELIREVRERIKKKIKEDA"}, "B28": {"name": "GBRAP_166_4901 (protein)", "chain": "SREEEIERLLAEARRLIEEFPELDEEGKWEAILEFGELLRRLRELGVPEETLLELVRELLEAAKEAGLNVKVVAGTIANVAEFDEEFIDKLDEIAEEVAK"}, "B29": {"name": "GBRAP_9_7105 (protein)", "chain": "KEEFAKKVKEIILDAREEIKKVVPEELKPLVDKLTEELLKEIEKLEKDPNTTKEEIAKKAKEGLKKMAEELKKKLSPEIAAAVEAITLTAIEEIDELEEE"}}, "note": "Over roughly 4,500 sequences, “median log2 fold change of GCK-ALFA target abundance (FLAG IP / Myc IP barcode read proportion)” has its median near 0.078; the lowest 2% begin near -0.6. The list shows a part of the results.", "data": [{"target": "GABARAP, O95166", "sequence (O95166 whole entry, the tested form may be a part)": "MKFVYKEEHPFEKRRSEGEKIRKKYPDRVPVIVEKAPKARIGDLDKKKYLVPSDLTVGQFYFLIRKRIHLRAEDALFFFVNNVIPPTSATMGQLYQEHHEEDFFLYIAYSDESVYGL", "test": "median log2 fold change of GCK-ALFA target abundance (FLAG IP / Myc IP barcode read proportion) (log2 ratio); each designed protein is fused to an ALFA-tag nanobody in HEK293 cells to bring the named protein to FLAG-tagged glucokinase (GCK); Myc marks an untargeted standard; higher = target protein stabilised (more abundant)", "details": "target protein: 3xFLAG-MCP-GCK-ALFA reporter; HEK293 landing pad (RPLP)", "how_it_was_run": "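The readout is target abundance, the per-binder median log2 ratio of FLAG to Myc barcode read proportions. It came from HEK293 landing-pad cells carrying a recombined ALFA-nanobody-fused binder library, induced with 2 μg mL^−1 doxycycline and transfected with a plasmid for a FLAG-tagged target and a Myc-tagged standard. After 48 h, lysates were immunoprecipitated with anti-FLAG and anti-Myc, and circular RNA barcodes were reverse transcribed, amplified and sequenced. Each barcode needed a proportion of at least 10^−7 in both replicates and each binder at least 3 barcodes per replicate, a pseudocount of 10^−6 was added, and the replicates were pooled.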", "values": [{"binder": "B1", "median log2 fold change": -0.166}, {"binder": "B2", "median log2 fold change": -0.257}, {"binder": "B3", "median log2 fold change": 0.255}, {"binder": "B4", "median log2 fold change": 0.179}, {"binder": "B5", "median log2 fold change": -0.0139}, {"binder": "B6", "median log2 fold change": 0.0382}, {"binder": "B7", "median log2 fold change": 0.283}, {"binder": "B8", "median log2 fold change": 0.241}, {"binder": "B9", "median log2 fold change": 0.301}, {"binder": "B10", "median log2 fold change": -0.0103}, {"binder": "B11", "median log2 fold change": -0.468}, {"binder": "B12", "median log2 fold change": -0.251}, {"binder": "B13", "median log2 fold change": 0.0932}, {"binder": "B14", "median log2 fold change": 0.0261}, {"binder": "B15", "median log2 fold change": 0.00598}, {"binder": "B16", "median log2 fold change": 0.273}, {"binder": "B17", "median log2 fold change": 0.24}, {"binder": "B18", "median log2 fold change": 0.14}, {"binder": "B19", "median log2 fold change": 0.192}, {"binder": "B20", "median log2 fold change": -0.057}, {"binder": "B21", "median log2 fold change": 0.296}, {"binder": "B22", "median log2 fold change": -0.00743}, {"binder": "B23", "median log2 fold change": 0.389}, {"binder": "B24", "median log2 fold change": -0.378}, {"binder": "B25", "median log2 fold change": 0.385}, {"binder": "B26", "median log2 fold change": -0.0913}, {"binder": "B27", "median log2 fold change": -0.183}, {"binder": "B28", "median log2 fold change": 0.275}, {"binder": "B29", "median log2 fold change": 0.182}]}]}
